Results as given in the supplement of paper PMC10670038.
Structures can show the parent of a compound that is named as a salt. ± gives the standard deviation of the averaged measurements. Whole data set: some 2,000 compounds, median “relative cell viability vs DMSO, compound + 0.2 uM CuET” near 1, cut for the lowest 2% near 0.25. The list shows a part of the results.

What follows are molecules tested on TE10 (assay: relative cell viability vs DMSO, compound + 0.2 uM CuET (fraction); TE10 is an esophageal squamous carcinoma line; higher = less cytotoxic). Conditions: 2 µM; co-treatment: CuET (bis(diethyldithiocarbamate)copper) 0.2 uM; 48 h.
Experimental: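 TE10 ESCC cells (1,000/well, 384-well plates) were treated with Selleck bioactive library compounds at 2 uM combined with 0.2 uM CuET (copper diethyldithiocarbamate) for 48 h. Viability was read by CellTiter-Glo and expressed relative to DMSO wells. Two technical replicates (A, B).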

SMILES | relative cell viability
N#Cc1ccc2[nH]c(O)c(-c3ccc(CN4CCOCC4)cn3)c2c1 | 1.4 ± 0.13
COc1cc2ncnc(Nc3ccc(Cl)cc3F)c2cc1OC | 1.078 ± 0.0047
N#C[C@@H]1CCCN1C(=O)CNC12CC3CC(CC(O)(C3)C1)C2 [Vildagliptin (LAF-237)] | 1.14 ± 0.24
CCN(CC)CCN(Cc1ccc(-c2ccc(C(F)(F)F)cc2)cc1)C(=O)Cn1c(SCc2ccc(F)cc2)nc(=O)c2c1CCC2 | 0.44 ± 0.095
CC(C)C[C@H](NC(=O)CNC(=O)c1cc(Cl)ccc1Cl)B(O)O | 0.799 ± 0.013
O=S(=O)(NCCNCC=Cc1ccc(Br)cc1)c1cccc2cnccc12 | 1.12 ± 0.058
CNC[C@H](O)c1cccc(O)c1 [Phenylephrine HCl] | 1.12 ± 0.083
CCn1cc(-c2ccnc3[nH]c(-c4cccc(CN(C)C)c4)cc23)c(-c2ccc(NC(=O)N(C)C)cc2)n1 | 1.14 ± 0.33
CCOc1ccn(-c2ccc(F)cc2)c(=O)c1C(=O)Nc1ccc(Oc2ccnc(N)c2Cl)c(F)c1 | 1.06 ± 0.021
Cc1nc(Nc2n[nH]c3c2CN(C(=O)N[C@H](CN(C)C)c2ccccc2)C3(C)C)c2sccc2n1 | 0.5266 ± 0.0033
CSc1cccc(Nc2ncc3cc(-c4c(Cl)cccc4Cl)c(=O)n(C)c3n2)c1 | 0.739 ± 0.014
OCc1ccc(-c2ccc(-c3ccc(CO)s3)o2)s1 | 0.225 ± 0.01
O=c1c(-c2ccc(O)cc2)coc2cc(O)cc(O)c12 [Genistein] | 1.1 ± 0.12
Cc1cc(N2CCOCC2)ccc1Nc1nc(NC2CCCCC2)c2[nH]cnc2n1 | 1.14 ± 0.29
O=C(O)c1ccc(Nc2ncc3c(n2)-c2ccc(Cl)cc2C(c2c(F)cccc2F)=NC3)cc1 | 1.19 ± 0.096
COc1cc2c(cc1OC)-c1cc3ccc(OC)c(OC)c3c[n+]1CC2 [Palmatine chloride] | 1.05 ± 0.12
CNC(=C[N+](=O)[O-])NCCSCc1ccc(CN(C)C)o1 [Ranitidine] | 0.985 ± 0.014
C=CCc1ccc(O)c(-c2ccc(O)c(CC=C)c2)c1 [Honokiol] | 0.92 ± 0.13
O=c1ncn2nc(Sc3ccc(F)cc3F)ccc2c1-c1c(Cl)cccc1Cl | 1.31 ± 0.042
C[C@]12C=CC(=O)C=C1CC[C@@H]1[C@@H]2[C@@H](O)C[C@@]2(C)[C@H]1CC[C@]2(O)C(=O)CO [Prednisolone] | 1.02 ± 0.044
O=c1[nH]cc(F)c(=O)[nH]1 [Fluorouracil (5-Fluoracil, 5-FU)] | 1.23 ± 0.11

SMILES | relative cell viability
CS(=O)(=O)c1ccc([C@@H](O)[C@@H](CO)NC(=O)C(Cl)Cl)cc1 [Thiamphenicol] | 1.33 ± 0.038
Cc1cncc(CN2CCC(=C3c4ccc(Cl)cc4CCc4cccnc43)CC2)c1 [Rupatadine Fumarate] | 1.08 ± 0.18
CC(=O)Oc1cc(C(F)(F)F)ccc1C(=O)O [Triflusal] | 1.08 ± 0.12
CNC(=O)c1ccc2cc([C@@]3(O)CCn4cncc43)ccc2c1 [TAK-700 (Orteronel)] | 1.13 ± 0.14
N=c1ccn2c(n1)O[C@H]1[C@H](O)[C@@H](CO)O[C@H]12 [Cyclocytidine HCl] | 1.02 ± 0.042
CN(C)CCCNC(=O)c1ccc(-c2cc(O)c3ncccc3c2)cc1 | 0.838 ± 0.11
C[C@@H]1CC(=O)NN=C1c1ccc(NN=C(C#N)C#N)cc1 [Levosimendan] | 1.05 ± 0.059
C[C@@H](c1ncncc1F)[C@](O)(Cn1cncn1)c1ccc(F)cc1F [Voriconazole] | 1.17 ± 0.083
O=C(O)Cc1ccccc1Nc1c(Cl)cccc1Cl [Diclofenac Potassium] | 1.13 ± 0.06
O=C(O)Cc1ccccc1Nc1c(Cl)cccc1Cl [Diclofenac Sodium] | 1.098 ± 0.0064
O=C(O)Cc1ccccc1Nc1c(Cl)cccc1Cl [Diclofenac Diethylamine] | 1.26 ± 0.18
Cc1c(NC(=O)c2ccc(C(C)(C)C)cc2)cccc1-c1cn(C)c(=O)c(Nc2ccc(C(=O)N3CCOCC3)cc2)n1 | 1.04 ± 0.046
NC(=O)c1noc([C@H](CCCC2CCCCC2)CC(=O)NO)n1 | 0.967 ± 0.089
CN1CCN(CCCNc2ncc(Cl)c(-c3cc4c(C(=O)NC5CC5)cccc4s3)n2)CC1 | 1.054 ± 0.0075
CC[C@@]1(O)C(=O)OCc2c1cc1n(c2=O)Cc2cc3cc(O)ccc3nc2-1 [(S)-10-Hydroxycamptothecin] | 0.467 ± 0.013
Cc1cccc(-c2[nH]c(C(C)(C)C)nc2-c2ccc3nccnc3c2)n1 | 0.962 ± 0.014
NC1(c2ccc(-c3nc4ccn5c(=O)[nH]nc5c4cc3-c3ccccc3)cc2)CCC1 | 0.884 ± 0.087
Cc1cnc(Nc2ccc(N3CCN(C)CC3)cc2)nc1Nc1cccc(S(=O)(=O)NC(C)(C)C)c1 | 0.857 ± 0.15
CC(C)CCN1c2nc(Nc3cc(F)c(O)c(F)c3)ncc2N(C)C(=O)C1C (configuration not stated) | 0.989 ± 0.16
O=C1NC(=O)/C(=C/c2ccc(-c3ccc(F)cc3O)o2)S1 | 0.905 ± 0.043
CCn1c(=O)c(-c2ccc(-c3cncs3)cc2Cl)cc2cnc(Nc3ccc(N4CCN(C)CC4)cc3)nc21 | 0.183 ± 0.025

SMILES | relative cell viability
CNC1CCC(N(Cc2cccc(-c3ccncc3)c2)C(=O)c2sc3ccccc3c2Cl)CC1 (configuration not stated) [Smoothened Agonist (SAG) HCl] | 1.15 ± 0.016
CCCC(C)NC(=O)c1ccc(Cl)c(Cl)c1 (configuration not stated) | 1.4 ± 0.089
Nc1ccc(S(=O)(=O)Nc2ncccn2)cc1 [Sulfadiazine] | 1.03 ± 0.045
C#C[C@]1(OC(C)=O)CC[C@H]2[C@@H]3CCC4=C[C@@H](OC(C)=O)CC[C@@H]4[C@H]3CC[C@@]21C [Ethynodiol diacetate] | 1 ± 0.018
CC(C)[C@H](C(=O)Nc1ccc(C(=O)NO)cc1)c1ccccc1 | 0.178 ± 0.0071
C#C[C@]1(O)CC[C@H]2[C@@H]3CCC4=CC(=O)CC[C@@H]4[C@H]3CC[C@@]21C [Norethindrone] | 1.13 ± 0.1
CCOc1cn(-c2ccc(F)cc2C)nc1C(=O)Nc1ccc(Oc2ccnc3cc(OC)c(OC)cc23)c(F)c1 | 0.939 ± 0.14
C=CCc1cc(OC)c(O)c(C(=O)NCCO)c1 [Alibendol] | 0.884 ± 0.023
COc1cc(N2CCN(C)CC2)ccc1Nc1nccc(-c2cn(C)c3cnccc23)n1 | 1.01 ± 0.16
COc1cc2c(cc1O)CC[C@@H]1[C@@H]2CC[C@]2(C)[C@@H](O)CC[C@@H]12 [2-Methoxyestradiol (2-MeOE2)] | 0.511 ± 0.24
CC(C)NC[C@H](O)COc1ccc(CCOCC2CC2)cc1 [Levobetaxolol HCl] | 0.929 ± 0.046
COC(=O)C1=C(C)NC(C)=C(C(=O)OC)C1c1ccccc1[N+](=O)[O-] [Nifedipine] | 0.827 ± 0.066
NC(=O)c1cccc2[nH]c(-c3ccc(C4CCCN4)cc3F)nc12 (configuration not stated) | 1.05 ± 0.046
O=C(O)CSc1cc(NS(=O)(=O)c2ccc(Br)cc2)c2ccccc2c1O | 0.979 ± 0.11
COC(=O)N1CCN(Cc2cccc(NC(=O)Nc3ccc(C)nc3)c2F)CC1 | 1.22 ± 0.039
CN(C)CCCN1c2ccccc2CCc2ccc(Cl)cc21 [Clomipramine HCl] | 0.995 ± 0.044
Nc1ccc(O)c(C(=O)O)c1 [Mesalamine] | 1.089 ± 0.0055
CC[C@H]1OC(=O)[C@H](C)[C@@H](O[C@H]2C[C@@](C)(OC)[C@@H](O)[C@H](C)O2)[C@H](C)[C@@H](O[C@@H]2O[C@H](C)C[C@H](N(C)C)[C@H]2O)[C@](C)(O)C[C@@H](C)C(=O)[C@H](C)[C@@H](O)[C@]1(C)O [Erythromycin] | 1.03 ± 0.022
O=C1c2ccccc2C(=O)C1c1ccccc1 [Phenindione] | 0.986 ± 0.032
O=C(c1cc(Cc2n[nH]c(=O)c3ccccc23)ccc1F)N1CCN(C(=O)C2CC2)CC1 | 1.32 ± 0.043
O=C(O)CCCc1c[nH]c2ccccc12 [3-Indolebutyric acid (IBA)] | 1.12 ± 0.072

SMILES | relative cell viability
O=C(O)CCc1nc(-c2ccccc2)c(-c2ccccc2)o1 [Oxaprozin] | 1.19 ± 0.18
CC(C)(Oc1ccc(CCNC(=O)c2ccc(Cl)cc2)cc1)C(=O)O [Bezafibrate] | 1.18 ± 0.057
c1ccc(CC2=NCCN2)cc1 [Tolazoline HCl] | 1.23 ± 0.026
CCc1ccc(CCOc2ccc(CC3SC(=O)NC3=O)cc2)nc1 (configuration not stated) [Pioglitazone HCl] | 1.01 ± 0.085
CCc1ccc(CCOc2ccc(CC3SC(=O)NC3=O)cc2)nc1 (configuration not stated) [Pioglitazone] | 1.01 ± 0.11
Cc1ccc(S(=O)(=O)C=CC#N)cc1 | 0.101 ± 0.0039
CNC[C@@H](O)c1ccc(O)c(O)c1 [L-Adrenaline] | 0.8493 ± 0.0035
Cc1ccc(N(CC2=NCCN2)c2cccc(O)c2)cc1 [Phentolamine Mesylate] | 0.943 ± 0.084
CC(C)Nc1cc(-c2c[nH]c(C(=O)N[C@H](CO)c3cccc(Cl)c3)c2)c(Cl)cn1 | 0.937 ± 0.02
CCCSc1ccc2[nH]c(NC(=O)OC)nc2c1 [Albendazole] | 0.786 ± 0.049
Cc1c(Cl)cccc1Nc1ccccc1C(=O)O [Tolfenamic Acid] | 1.14 ± 0.077
CO[C@H]1/C=C/O[C@@]2(C)Oc3c(C)c(O)c4c(O)c(c(/C=N/N5CCN(C)CC5)c(O)c4c3C2=O)NC(=O)/C(C)=C\C=C\[C@H](C)[C@H](O)[C@@H](C)[C@@H](O)[C@@H](C)[C@H](OC(C)=O)[C@@H]1C [Rifampin] | 0.92 ± 0.073
COc1cc(F)c(C(C)C)cc1-c1ccc(C(F)(F)F)cc1CN1C(=O)O[C@H](c2cc(C(F)(F)F)cc(C(F)(F)F)c2)[C@@H]1C [Anacetrapib (MK-0859)] | 1.17 ± 0.019
COC(=O)[C@H](c1ccccc1Cl)N1CCc2sccc2C1 [Clopidogrel] | 1.22 ± 0.034
COCCCC/C(=N\OCCN)c1ccc(C(F)(F)F)cc1 [Fluvoxamine maleate] | 1.06 ± 0.015
O=C(Nc1cc(C(F)(F)F)cc(C(F)(F)F)c1)c1cc(Cl)ccc1O | 0.317 ± 0.038
NC(=O)N1CCC(CC(=O)N2CCC([C@H]3c4ncc(Br)cc4CCc4cc(Cl)cc(Br)c43)CC2)CC1 [Lonafarnib] | 1.025 ± 0.0057
C[C@H](N[C@@H](CCc1ccccc1)C(=O)O)C(=O)N1CCC[C@H]1C(=O)O [Enalaprilat Dihydrate] | 1.01 ± 0.027
CC(C)C[C@H](NC(=O)[C@H](Cc1ccccc1)NC(=O)c1cnccn1)B(O)O [Bortezomib (PS-341)] | 0.348 ± 0.058
